# Data as given in PubChem BioAssay AID488969 (Vanderbilt High Throughput Screening Facility, 2010).
# Over roughly 110,000 compounds, “z-score” has its median near -0.1; the highest 2% begin near 2. The list shows a part of the results. Calls of active or inactive are those of the source.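 Rule for the calls: active = z-score in the third read window above 3 or below -3; inactive = the rest.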
# Target: Metabotropic glutamate receptor 8 (Rattus norvegicus) (UniProt P70579)
# Assay: mGluR8 Gi/Go-coupled signaling modulation – cell-based, rat, thallium flux, HTS, primary screen (AID 488969)
# Conditions: HEK293 rat mGluR8, GIRK (G protein-gated inwardly rectifying potassium channel) thallium flux, FluoZin2; at 10 µM; stronger effect = higher value; submaximal glutamate (EC20) added with thallium
# Chain of UniProt P70579 (P70579 whole entry, looked up): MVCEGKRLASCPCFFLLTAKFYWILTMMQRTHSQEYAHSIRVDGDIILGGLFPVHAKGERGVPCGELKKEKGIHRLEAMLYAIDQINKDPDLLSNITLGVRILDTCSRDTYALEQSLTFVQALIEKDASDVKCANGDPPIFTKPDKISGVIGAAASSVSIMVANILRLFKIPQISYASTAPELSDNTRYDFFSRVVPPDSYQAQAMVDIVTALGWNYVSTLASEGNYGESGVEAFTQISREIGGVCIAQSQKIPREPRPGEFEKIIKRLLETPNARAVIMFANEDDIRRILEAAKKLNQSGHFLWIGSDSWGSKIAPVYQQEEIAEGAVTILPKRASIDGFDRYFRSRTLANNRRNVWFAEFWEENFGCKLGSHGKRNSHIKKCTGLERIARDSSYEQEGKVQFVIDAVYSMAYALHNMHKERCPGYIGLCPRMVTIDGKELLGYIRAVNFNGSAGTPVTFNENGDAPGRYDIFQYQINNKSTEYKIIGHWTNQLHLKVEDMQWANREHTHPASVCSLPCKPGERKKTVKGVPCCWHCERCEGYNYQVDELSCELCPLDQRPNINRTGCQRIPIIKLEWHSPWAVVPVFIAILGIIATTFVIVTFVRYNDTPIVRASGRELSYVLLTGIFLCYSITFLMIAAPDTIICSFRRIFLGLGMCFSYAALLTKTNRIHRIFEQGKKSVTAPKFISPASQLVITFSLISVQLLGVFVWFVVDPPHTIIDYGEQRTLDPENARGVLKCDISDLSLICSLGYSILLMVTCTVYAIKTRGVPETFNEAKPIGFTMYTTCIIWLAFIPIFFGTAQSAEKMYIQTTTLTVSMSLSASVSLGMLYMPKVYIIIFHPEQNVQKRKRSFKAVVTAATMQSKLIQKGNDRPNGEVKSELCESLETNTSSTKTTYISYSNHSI
row,Compound,z-score
1,Cc1noc(C)c1C(=O)NC(C)C1CCCO1 (stereo not given),-0.456
2,CCCCC(=O)NCCc1cc2c(C)ccc(C)c2[nH]c1=O,-0.21
3,O=C(COC(=O)c1ccccc1C(=O)c1ccc(Cl)cc1)NC(c1ccccc1)c1ccccc1,-0.14
4,CC1=C(C(N)=O)C(c2ccncc2)n2nc(-c3ccccc3Cl)nc2N1 (stereo not given),-0.353
5,CCCCOc1ccccc1NC(=O)CC1SC(=NCC)N(CC)C1=O (stereo not given),0.518
6,c1ccc(-c2cnnc(N3CCCCC3)n2)cc1,-0.602
7,Cc1ccc2[nH]c(=O)c(CN(CC3CCCO3)S(=O)(=O)c3c(C)ccc4nsnc34)cc2c1 (stereo not given),-0.0122
8,CC1Sc2ccc(C(=O)O)cc2NC1=O (stereo not given),-0.0525
9,Cc1ccc(C)c(S(=O)(=O)NC(C)C(=O)Nc2ccc(-c3nc4ccccc4s3)cc2)c1 (stereo not given),0.0236
10,Nc1ccccc1Oc1ncc(C(F)(F)F)cc1Cl,0.022
11,c1ccc(OCCSc2ncnc3nc[nH]c23)cc1,-0.123
12,COc1ccc(Cn2c(-c3ccc(OC)cc3)nc3c(c(=O)c4ccccc4n3C)c2=O)cc1,-0.37
13,C=C(C)n1c(=O)[nH]c2ccccc21,0.0218
14,C=CCNC(=O)CSc1ccc(Cl)cc1,-0.0805
15,Cc1ccc(SCc2nnc(NC(=O)c3ccccc3)s2)cc1,0.572
16,COc1cccc(/C(O)=C2/C(=O)C(=O)N(CCN3CCOCC3)C2c2cccnc2)c1 (stereo not given),0.0203
17,Cc1ccc2nc(C(F)OC(F)(F)F)[nH]c2c1 (stereo not given),-0.0345
18,COc1cccc(C(=O)NC(=S)N2CCN(c3ccc(C(F)(F)F)cc3[N+](=O)[O-])CC2)c1,active: 4.68
19,CCCC(=O)Nc1c(-c2ccccc2)c(=O)c(C)nn1-c1ccc(Cl)cc1,-0.343
20,CCN1CCN(S(=O)(=O)c2cccs2)CC1,0.736
21,Cc1cccc(NC(=O)c2ccc(N3CCCCC3)c([N+](=O)[O-])c2)n1,0.863
22,Cc1ccc(C(=O)NNC(=O)OC(C)(C)C)c(Cl)c1,-0.165

row,Compound,z-score
1,Clc1ccc2c(c1)CNc1c(ncnc1N1CCOCC1)O2,0.261
2,CN(c1ccc(C(=O)N2CCOCC2)cc1[N+](=O)[O-])C1CCCCC1,-0.174
3,Cc1cccc(OC(=O)CN2C(=O)C3C4CCC(C4)C3C2=O)c1C (stereo not given),-0.136
4,CCn1c(O)c(/C=C2\C=Nc3ccccc32)sc1=Nc1ccc(C)cc1,-0.138
5,CC(=O)C1=C(O)C(=O)N(Cc2cccnc2)C1c1ccccc1Cl (stereo not given),-0.135
6,O=C(Nc1ccccc1F)C1CC1c1ccccc1 (stereo not given),-0.295
7,O=C1CC(N(CCc2ccccc2)C(=S)Nc2ccccc2)C(=O)N1c1ccc(Br)cc1 (stereo not given),0.105
8,COc1ccccc1C(=O)NCc1ccccc1,-0.524
9,CC(=O)c1cccc(N=C2C(=O)Nc3ccccc32)c1,0.86
10,CCSC1=C(C#N)C(c2ccc(C)s2)CC(=O)N1 (stereo not given),-0.627
11,COCCn1c(SCc2cnc(-c3ccccc3)s2)nnc1-c1ccncc1,-0.0799
12,Clc1ccc(C(c2ccccc2)N2CCNCC2)cc1 (stereo not given),2.16
13,Cc1cccc(/C(N)=N/OC(=O)c2ccco2)c1,-0.249
14,CS(=O)(=O)N1CCN(C(=O)c2cc(-c3ccncc3)nc3ccc(Cl)cc23)CC1,-0.0609
15,Nc1nc(Br)c2ccccc2c1-c1ccc(F)cc1,-0.11
16,CCCCc1ccc(S(=O)(=O)NNC(=S)NCc2ccco2)cc1,-0.395
17,CCn1nc(C)c(C2C(C#N)=C(N)Oc3n[nH]c(C)c32)c1C (stereo not given),-0.237
18,COc1ccccc1C1NC=C([N+](=O)[O-])C=C1[N+](=O)[O-] (stereo not given),-0.297
19,COCC(=O)Nc1nc2ccc(C)cc2s1,0.0888
20,COc1ccccc1CNC(=O)COc1ccccc1OC,-0.401
21,CCCCCc1c(C)nc(N2CCc3ccccc32)[nH]c1=O,0.499
22,O=C(CSc1nnnn1-c1ccccc1)Nc1ncc(Cc2cc(Cl)ccc2Cl)s1,0.34

row,Compound,z-score
1,Cc1csc2ncc(C(=O)NC(C)c3ccccc3)c(=O)n12 (stereo not given),-0.624
2,COc1ccc(-n2c(SCC(=O)Nc3nccs3)nnc2-c2ccccc2)cc1,-0.11
3,CCOC(=O)c1c(C)[nH]c(C(=O)OC/C(O)=C(\C#N)c2nc3ccccc3[nH]2)c1C,-1.26
4,CN(C)CCNC(=O)/C(=C/c1ccc(-c2cccc(Cl)c2)o1)NC(=O)c1ccccc1,0.11
5,CCN(CC)CCCNC(=O)c1cc2c(-c3ccc(Cl)cc3)nn(C)c2s1,0.282
6,O=c1c2c3c(sc2nc2n1CCCC2)CCC3,0.258
7,O=C(COc1ccccc1Br)NCCc1nc2ccccc2[nH]1,-0.186
8,O=C(CCCn1c(=O)c2sccc2n(Cc2ccc(F)cc2)c1=O)NCc1ccco1,-0.0736
9,COC(=O)c1ccc(C2C(Oc3ccccc3)C(=O)N2CCc2ccc(F)cc2)cc1 (stereo not given),-0.103
10,Cc1ccc(S(=O)(=O)c2cc3c(=O)n4ccccc4nc3n(Cc3ccco3)c2=N)cc1,-0.166
11,COc1ccc(CCNC(=O)C(C(=O)c2ccccc2)n2ccccc2=O)cc1OC (stereo not given),0.0271
12,O=c1cc(O)c2sc(Nc3cccc(C(F)(F)F)c3)nc2[nH]1,-0.0868
13,CCC(=O)NC(=S)NNC(=O)c1ccc(OC)cc1,-0.0696
14,CCOC(=O)C1=C(CNC2CCCCC2)NC(=O)NC1c1cc(C)ccc1C (stereo not given),1.64
15,O=C(Nc1cc(Sc2nc3ccccc3s2)cc([N+](=O)[O-])c1)c1ccccc1F,-0.2
16,O=C(COc1ccc(Cl)cc1Cl)N/N=C1\CCCc2ccccc21,0.149
17,COc1ccccc1NC(=O)CSc1nc2ncccc2[nH]1,-1.06
18,CCN(CC)S(=O)(=O)c1cccc(NC(=O)COc2ccc(C#N)cc2OC)c1,-0.191
19,O=C(CN(C(=O)c1ccc(Cl)cc1)N1C(=O)C2CCCCC2C1=O)c1ccc(Cl)cc1 (stereo not given),0.0138
20,CCOC(=O)c1ccc(NC(=O)C2CCN(S(=O)(=O)c3ccccc3)CC2)cc1,0.719
21,Cc1cc(NC(=O)C2CC(c3cccc(Br)c3)=NO2)no1 (stereo not given),-0.0724
22,Cc1ccc2c(c1)C1NC(=S)NC(C)(O2)C1C(=O)Nc1ccc(Cl)cc1 (stereo not given),-0.244

row,Compound,z-score
1,COc1cc(NC(=O)CSc2nnnn2Cc2ccc3c(c2)OCO3)cc(OC)c1,-0.405
2,CSc1nccc(Oc2cncc(Cl)c2)n1,-0.0377
3,CC(C)(C)n1nnnc1C(c1cccnc1)N1CCN(c2ccccc2)CC1 (stereo not given),1.03
4,CCn1c(=O)cc(OCC(=O)Nc2ccccc2N2CCN(C)CC2)c2ccccc21,-1.02
5,CC(C)OC(=O)c1cccc(C(=O)O)n1,-1.02
6,COC(=O)C1(C#N)C(c2ccccc2)C1(C(=O)OC)C(=O)OC (stereo not given),-0.244
7,CC12CCC(C(=O)N(CSC(=S)N/N=C\c3ccccc3Cl)C1=O)C2(C)C (stereo not given),active: 16.2
8,CCOP(=O)(OCC)c1nc(-c2ccc(C)cc2)oc1NCc1ccccc1,-0.559
9,Cc1ccc(OCC(=O)Nc2ccc3c4c(cccc24)CC3)c(C)c1,-1.37
10,CC(CN1CCN(c2ccccc2)CC1)c1ccccc1 (stereo not given),-0.5
11,O=C(NCc1ccncc1)c1c(F)c(F)c(F)c(F)c1F,0.359
12,N#C/C(=C\c1cc2ccccc2nc1N1CCOCC1)C(=O)Nc1ccc(N2CCOCC2)cc1,-0.0498
13,COCCSc1ccccc1C(=O)Nc1nnc(C)s1,0.0856
14,Clc1ccc2oc(-c3cccnc3)nc2c1,-0.154
15,Cc1cc(N2C(=O)C(O)=C(C(=O)c3ccc(C)o3)C2c2cccs2)no1 (stereo not given),active: -4.56
16,Cn1c(-c2sc3cc(C(F)(F)F)cnc3c2-c2ccccc2)n[nH]c1=S,1.26
17,COc1ccc(-n2c3c(cc(C(=O)Nc4ccc5c(c4)C(=O)NC5=O)c2=O)C(=O)CCC3)cc1,-0.0421
18,O=[N+]([O-])c1cc(C(F)(F)F)ccc1NCCNC(=S)Nc1ccc(Cl)cc1,-0.0979
19,COc1ccc(C2=NN(C(=O)c3cccs3)C(c3ccc(OC)cc3)C2)cc1 (stereo not given),0.167
20,c1ccc(OCCCc2nc(-c3ccncc3)no2)cc1,0.0435
21,O=C(N/N=C/c1ccc(-c2ccccc2[N+](=O)[O-])o1)c1cncc(Br)c1,-1.68
22,Cc1ccc(NC(=O)c2cc(Cl)nc3ccccc23)cc1,-0.205

row,Compound,z-score
1,O=C(CCS(=O)(=O)c1ccccc1)NC12CC3CC(CC(C3)C1)C2,-0.514
2,CCNC(=S)NNC(=O)c1cc(C)on1,-0.232
3,COc1c(/C=N/Nc2ccc([N+](=O)[O-])cc2[N+](=O)[O-])c(C)nn1-c1ccccc1,0.178
4,CCOC(=O)N1CCN(C(=O)c2ccc(OCC)c(OCC)c2)CC1,0.263
5,CCC(C)NC(=O)C1CCN(S(=O)(=O)CC)CC1 (stereo not given),-0.396
6,c1ccc2c(c1)ccc1nnc(SCc3ccc4c(c3)OCO4)n12,-0.511
7,CCCC(=O)NCc1ccc2c(c1)cc(C)n2C,-0.371
8,N#CC1=C(N)NC(SCC(=O)c2ccc(Cl)cc2)=C(C#N)C12CCCC2,-0.593
9,Cc1nnc(C)n1/N=C/c1ccc(C(C)C)cc1,0.0448
10,COC(=O)c1ccc(Sc2ccccc2NS(=O)(=O)c2ccc(OC)cc2)nc1,0.0537
11,C/C(=N\N1CCN(C2c3ccccc3-c3ccccc32)CC1)c1cccnc1,-0.195
12,CC(=O)c1cc2c(cc1NC(=O)CSc1nc3ccc(C)cc3[nH]1)OCO2,0.771
13,Cc1cc(/C=C(\C#N)C(=O)NCc2cccs2)c(C)n1-c1ccc([N+](=O)[O-])cc1,0.114
14,Clc1ccc2nc(SCc3nnc(-c4ccccc4)o3)[nH]c2c1,-0.339
15,CC1CN(c2nc(-c3ccccc3)nc3ccccc23)CC(C)O1 (stereo not given),-0.673
16,CCOC(=O)c1c(NC(=S)NC(=O)c2ccc(Cn3cc(Cl)cn3)o2)sc2c1CCCCC2,0.0384
17,CCN(CC)S(=O)(=O)c1ccc(OC)c(NC(=O)COc2ccc3c(C)cc(=O)oc3c2)c1,-0.114
18,Cc1cccc(-n2c(C)nc3sccc3c2=O)c1,1.99
19,CCCCCn1c(CNC(=O)c2cccs2)nc2ccccc21,-0.237
20,CCn1c(O)c(/C=N/NC(=O)c2ccncc2)c(=O)n(CC)c1=S,1.66
21,Cc1ccc(NC(=O)C2CCCN2S(=O)(=O)c2ccc(F)cc2)c(C)c1 (stereo not given),-0.334
22,COc1ccccc1C(=O)N1CCNC(=O)C1CC(=O)Nc1cccc(C)c1 (stereo not given),-0.198
